Drawing on PubChem BioAssay AID485344 (National Center for Advancing Translational Sciences (NCATS), 2010), this text covers inhibition for 28 compounds.

SMILES strings stand for the structures. Among all 340,000 compounds or so, about 6,900 (2%) were called active. No stated cut-off is given here; in the data, active means inhibition above about 30%; inactive means below that, where a call was filed. This is a selection; strong and weak results do not stand in their true shares. Entries without a call were filed so in the source.

Sequence of UniProt P14416 (P14416 whole entry, looked up): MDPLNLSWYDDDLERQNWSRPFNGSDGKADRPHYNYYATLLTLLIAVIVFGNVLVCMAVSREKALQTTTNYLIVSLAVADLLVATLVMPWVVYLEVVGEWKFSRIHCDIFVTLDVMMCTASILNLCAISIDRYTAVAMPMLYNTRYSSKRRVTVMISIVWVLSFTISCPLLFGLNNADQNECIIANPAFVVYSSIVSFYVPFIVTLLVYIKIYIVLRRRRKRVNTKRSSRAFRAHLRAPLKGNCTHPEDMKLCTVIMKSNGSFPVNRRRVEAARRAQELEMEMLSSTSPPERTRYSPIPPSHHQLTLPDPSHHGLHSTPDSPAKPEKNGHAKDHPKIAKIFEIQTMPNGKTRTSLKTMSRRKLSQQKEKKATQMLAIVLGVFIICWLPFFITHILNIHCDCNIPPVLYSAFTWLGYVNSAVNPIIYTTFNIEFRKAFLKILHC

The target of the test is D(2) dopamine receptor (Homo sapiens) (UniProt P14416). Put plainly: HTS Assay for Allosteric Antagonists of the Human D2 Dopamine Receptor: Primary Screen for Antagonists. Further: 0% is about no effect. The following applies: HEK293 TREx D2 cells, calcium flux, dopamine EC80; at 10 µM; stronger effect = higher value. The method, boiled down:
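Calcium flux kinetic readout in an inducible HEK293 TREx D2 line plated overnight at 30 C. After 180 s compound exposure, an EC80 dopamine challenge follows with another 180 s kinetic read to detect antagonism.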
Consider `Cc1cc(C)n2nc(SCC(=O)Nc3ccc(O)cc3)nc2n1`, for which the inhibition (in general, the drop in the measured response relative to a control, in per cent) amounted to 6.08%.

Take `COc1ccc2[nH]cc(CCNC(=O)Nc3c(C)cccc3C)c2c1`: the inhibition was found to be 12.5%.

As for `Cc1ccc(NC(=O)CSc2ncccc2C(=O)Oc2ccccc2Cl)cc1Cl`, the inhibition was determined as 17.9%.

As to `COc1cccc(NC(=O)c2oc3ccccc3c2NC(=O)COc2ccccc2C)c1`, the inhibition came out at 3.18%.

For `COc1ccc(-c2nnn3c2nc(NCc2ccccc2)c2ccccc23)cc1`, the inhibition was -8.8%.

In the case of `Cc1ccn2c(=O)c(C(=O)Nc3ccc(F)c(C(F)(F)F)c3)cnc2c1`, the inhibition amounted to 19.5%.

For `O=C(Cn1cc(S(=O)(=O)c2ccc(F)cc2)c(=O)c2cc3c(cc21)OCO3)Nc1ccccc1`, the inhibition was 22.8%.

Turning to `Cc1oc(-c2ccccc2F)nc1CN1CCC(C(=O)NCCc2ccc(Cl)cc2)CC1`, the inhibition was 10.7%.

For `CCOc1ccc(-c2nonc2NC(=O)c2oc3ccc(Cl)cc3c2C)cc1`, the inhibition was -22.4%.

Take `Fc1ccc(CN2CCN(c3ncccn3)CC2)c(F)c1`: the inhibition is active: 79.5%.

As for `COc1ccc(-c2nn(-c3ccccc3)cc2C(=O)NCCCn2ccnc2)cc1`, the inhibition is active: 30%.

As for `CCOc1ccc(N(CC)C(=O)c2cc3c(=O)oc4ccccc4c3s2)cc1`, the inhibition was 10.4%.

`CCOc1ccc(CN2CCN(S(=O)(=O)c3ccc(Cl)cc3)CC2)cc1`: the inhibition was 10.5%.

As to `O=C(CCCN1CCc2[nH]c3ccc(F)cc3c2C1)c1ccc(F)cc1`, the inhibition is active: 92.7%.

In the case of `CN1CCN(CC/C=C2/c3ccccc3Sc3ccc(S(=O)(=O)N(C)C)cc32)CC1`, the inhibition was active: 80%.

Take `O=c1oc2c(F)cc(F)cc2cc1S(=O)(=O)c1ccc(F)cc1`: the inhibition was found to be 10.8%.

For `Cc1nc(C)c(CCNS(=O)(=O)c2ccc(C)c(C)c2)s1`, the inhibition is 1.8%.

Regarding `Cc1ccc(C(=O)Nc2cccc(C(=O)N/N=C/c3ccc(F)cc3)c2)cc1`, the inhibition was active: 31.3%.

Regarding `Cc1ccc(Cc2nc3ccccc3nc2SCC(=O)N2CCCCC2)cc1`, the inhibition is -2.73%.

As to `Cc1ccc(-n2c(=O)c3c(c4cc(C)ccc4n3C)n(CC(=O)NCCC3=CCCCC3)c2=O)cc1`, the inhibition was -8.58%.

`COC(=O)c1cc2oc(C)cc2n1Cc1cccc(Cl)c1`: the inhibition is 10.3%.

For `O=c1c2oc3ccccc3c2n(Cc2cccc(Cl)c2)c(=O)n1Cc1ccc2c(c1)OCO2`, the inhibition was -0.83%.

On to `COc1ccccc1OCC(=O)NCC1(N2CCOCC2)CCCCC1`, for which the inhibition turned out to be 2.44%.

In the case of `O=C(NCc1cccc(Cl)c1)c1ccc(CS(=O)Cc2ccccc2Cl)o1` (stereo not drawn), the inhibition turned out to be 12.5%.

In the case of `O=C(NCc1ccccc1F)C(=O)NCC(c1cccs1)S(=O)(=O)c1cccs1` (stereo not drawn), the inhibition is -3.54%.

Regarding `CC1(C)ON(C2CCCCC2)[C@H]2c3nc4ccccc4n3C[C@H]21`, the inhibition is active: 39%.

As for `CC(C)Cc1ccc(S(=O)(=O)Nc2ccc3[nH]c(=O)[nH]c3c2)cc1`, the inhibition is -10%.

Take `CCOc1ccc(OCC)c(NC(=O)c2cnc3c(-c4ccccc4)c(C)nn3c2C)c1`: the inhibition came out at 14.9%.
